Test results published in the supplement of paper PMC12217912.
Some of the results follow. Sequences were assembled here from the parent chain. Inactive controls read about 0.05.

B1: TEV protease; numbered along this chain (parent)
chain: MGESLFKGPRDYNPISSSICHLTNESDGHTTSLYGIGFGPFIITNKHLFRRNNGTLVVQSLHGVFKVKDTTTLQQHLVDGRDMIIIRMPKDFPPFPQKLKFREPQREERICLVTTNFQTKSMSSMVSDTSCTFPSGDGIFWKHWIQTKDGQCGSPLVSTRDGFIVGIHSASNFTNTNNYFTSVPKNFMELLTNQEAQQWVSGWRLNADSVLWGGHKVFMVKPEEPFQPVKEATQL

Variants of: B1
Assay: raw area under fraction-flipped curve 0-4 h after induction (AUC4h, not background-subtracted), DNA-recorder readout of cleavage of the substrate (dimensionless); higher = more cleavage of the substrate by the protease variant
Details: temperature: 34 °C; time window: 0-4 h after rhamnose induction
Description: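 In vivo DNA recorder in E. coli TOP10(DE3) ΔrhaA at 34 °C. Each TEVp single-site mutant (parent TEVp 0) is paired with a single-site variant of the 7-mer TEVs (canonical ENLYFQ|S). The substrate sits between flexible linkers in a Bxb1-sfGFP-TEVs-SsrA fusion, so cleavage stabilises Bxb1 and speeds flipping of a recombination array, read by NGS. The value is the raw area under the fraction-flipped curve over 0-4 h after rhamnose induction (AUC4h), with ≥20 reads per time point. It is not background-subtracted; inactive controls average about 0.047.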
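Also: Bxb1 expression induced with 0.2% (w/v) L-rhamnose at OD600 near 0.5, cultures sampled hourly, flipped fraction per protease–substrate barcode pair counted by paired-end Illumina sequencing.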

Variant | area with substrate ANLYFQS | area with substrate CNLYFQS | area with substrate HNLYFQS | area with substrate INLYFQS | area with substrate LNLYFQS | area with substrate MNLYFQS | area with substrate PNLYFQS | area with substrate SNLYFQS | area with substrate TNLYFQS | area with substrate VNLYFQS | area with substrate YNLYFQS | area with substrate FNLYFQS | area with substrate GNLYFQS | area with substrate NNLYFQS | area with substrate RNLYFQS | area with substrate WNLYFQS | area with substrate KNLYFQS | area with substrate DNLYFQS | area with substrate QNLYFQS
F65T | 0.0657 | 0.0496 | 0.0495 | 0.0638 | 0.0706 | 0.0677 | 0.0555 | 0.111 | 0.0967 | 0.0609 | 0.0611 | – | – | – | – | – | – | – | –
K66I | 0.068 | 0.0705 | 0.0853 | 0.0774 | – | 0.0787 | – | – | – | 0.0705 | – | 0.048 | 0.0566 | 0.0663 | 0.115 | 0.0618 | – | – | –
K66V | 0.0561 | 0.0615 | 0.0606 | – | – | – | 0.0617 | – | 0.0743 | – | 0.0736 | 0.0689 | – | – | – | – | – | – | –
V67M | 0.0589 | 0.0615 | 0.0572 | 0.0733 | 0.0569 | 0.0639 | 0.0584 | 0.0565 | – | 0.0618 | 0.0428 | 0.0691 | – | – | – | 0.0724 | 0.0562 | – | –
K68E | 0.0556 | 0.0728 | 0.0656 | 0.0688 | 0.063 | 0.0655 | 0.0754 | – | 0.0668 | 0.0798 | 0.0737 | – | 0.0718 | – | – | 0.0692 | 0.072 | – | –
K68L | 0.061 | 0.0531 | 0.0511 | 0.0556 | 0.0813 | 0.0611 | 0.0674 | 0.0616 | 0.0551 | 0.0613 | 0.0587 | 0.0602 | – | 0.0555 | 0.0581 | 0.0597 | 0.0782 | – | –
K68Q | 0.0648 | 0.0441 | – | 0.0576 | 0.0075 | 0.0649 | – | – | 0.0547 | 0.0592 | 0.0511 | 0.0675 | – | 0.0927 | – | 0.0581 | 0.0657 | – | –
D69C | 0.0527 | 0.0708 | 0.0599 | 0.0701 | – | – | 0.0364 | – | 0.0634 | – | 0.0668 | – | 0.0824 | – | – | 0.0577 | 0.0519 | 0.0851 | –
D69I | 0.0666 | 0.0643 | 0.0486 | 0.0714 | 0.0904 | – | – | 0.059 | – | – | – | – | – | 0.0705 | 0.0587 | 0.0514 | 0.0555 | 0.0692 | –
D69R | 0.0691 | 0.0654 | 0.0659 | 0.0689 | 0.0612 | 0.0509 | 0.0479 | 0.0614 | 0.0592 | 0.0594 | – | – | 0.0785 | 0.061 | – | 0.061 | 0.0585 | – | –
T70A | 0.053 | – | 0.0638 | 0.0687 | – | 0.0812 | – | – | 0.0493 | – | 0.0624 | 0.0521 | 0.0621 | 0.0706 | – | 0.0574 | 0.06 | 0.0695 | –
T70D | 0.0647 | 0.0581 | 0.0494 | – | – | 0.0519 | 0.0353 | 0.0479 | 0.06 | – | 0.0595 | – | – | 0.0597 | 0.0632 | 0.0545 | 0.0538 | – | –
T70W | 0.0588 | 0.0585 | 0.06 | 0.0643 | 0.0501 | 0.0644 | 0.0621 | 0.0592 | 0.0603 | – | 0.0604 | 0.0648 | 0.0445 | 0.0541 | – | 0.0559 | 0.0655 | – | –
Q74E | 0.0605 | 0.0381 | 0.0569 | – | – | 0.066 | 0.0801 | – | – | – | 0.0519 | 0.0667 | 0.0782 | – | – | 0.0401 | – | – | –
Q74F | 0.0639 | 0.0773 | 0.0033 | 0.0629 | 0.0659 | – | – | – | 0.0544 | – | 0.061 | – | – | – | – | 0.0569 | – | – | 0.0857
Q74W | 0.062 | 0.082 | 0.0581 | – | 0.0684 | 0.0602 | 0.0636 | 0.0648 | 0.0667 | – | 0.0617 | – | 0.0499 | 0.0592 | – | 0.0576 | – | 0.0284 | –

Variant | area with substrate ANLYFQS | area with substrate CNLYFQS | area with substrate HNLYFQS | area with substrate INLYFQS | area with substrate LNLYFQS | area with substrate MNLYFQS | area with substrate PNLYFQS | area with substrate SNLYFQS | area with substrate TNLYFQS | area with substrate VNLYFQS | area with substrate YNLYFQS | area with substrate FNLYFQS | area with substrate GNLYFQS | area with substrate NNLYFQS | area with substrate RNLYFQS | area with substrate WNLYFQS | area with substrate KNLYFQS | area with substrate DNLYFQS | area with substrate QNLYFQS
H76A | 0.0707 | 0.0333 | – | – | 0.0572 | 0.0718 | 0.0759 | 0.0487 | – | 0.0614 | – | 0.0606 | 0.0668 | – | – | 0.0535 | – | – | 0.0693
H76I | 0.0672 | 0.0707 | – | 0.0537 | 0.0583 | 0.0611 | – | – | – | – | – | 0.049 | 0.0546 | – | – | 0.0603 | 0.0684 | – | –
H76Q | 0.0549 | 0.06 | – | – | 0.0633 | – | – | – | 0.0641 | – | 0.0598 | – | – | 0.0759 | 0.0641 | 0.0591 | 0.0655 | – | –
H76S | 0.0547 | – | 0.0553 | 0.0586 | 0.0577 | 0.0625 | 0.0645 | 0.0688 | 0.0663 | 0.054 | 0.0544 | 0.0524 | 0.0679 | 0.0807 | – | 0.0537 | – | 0.0791 | –
L77D | 0.0612 | 0.0607 | 0.0549 | 0.0719 | 0.0681 | – | 0.0531 | – | 0.059 | 0.051 | 0.0881 | 0.0633 | 0.0596 | 0.099 | 0.0816 | 0.0548 | 0.0607 | – | –
L77V | 0.0578 | 0.0672 | 0.0646 | 0.0993 | 0.0667 | – | 0.0676 | – | 0.0603 | – | 0.0648 | 0.0616 | 0.0513 | 0.0587 | – | 0.0658 | – | – | –
D79I | 0.0177 | – | 0.0684 | – | – | – | 0.0682 | – | – | – | 0.0513 | – | 0.0596 | – | – | – | – | 0.0878 | –
G80R | 0.0601 | – | – | – | – | – | – | – | 0.0779 | – | 0.0592 | – | – | 0.0588 | – | 0.0716 | – | 0.0891 | –
R81D | 0.0463 | 0.0686 | 0.0594 | – | 0.0551 | 0.0512 | 0.0591 | – | 0.077 | 0.0288 | – | – | – | – | – | – | 0.0451 | – | –
R81E | 0.0534 | – | 0.056 | – | – | 0.0737 | 0.0529 | – | 0.0509 | – | 0.0545 | 0.0526 | – | – | – | 0.0528 | 0.0531 | 0.0484 | 0.0541
R81L | 0.0571 | 0.0486 | 0.053 | 0.0476 | – | – | 0.053 | 0.0574 | – | – | 0.056 | 0.0648 | – | 0.062 | 0.0627 | 0.0442 | – | – | –
D82F | 0.0587 | 0.0601 | 0.0582 | 0.0449 | 0.0581 | – | – | 0.0525 | 0.0467 | – | 0.061 | 0.0519 | 0.059 | 0.0674 | – | 0.0466 | 0.0535 | – | –
D82Q | 0.0656 | 0.0616 | – | 0.0587 | – | 0.054 | 0.0584 | 0.0733 | 0.0385 | – | 0.0599 | 0.0513 | – | – | – | 0.0556 | – | – | –
D82W | 0.0483 | 0.0484 | – | 0.0441 | 0.0563 | 0.0714 | 0.0583 | 0.0353 | 0.0464 | 0.0572 | – | – | 0.0718 | 0.0554 | – | 0.058 | 0.0668 | – | 0.0489
M83I | 0.0659 | – | 0.0613 | – | 0.0775 | – | 0.08 | – | 0.0596 | – | – | – | – | – | – | 0.056 | – | 0.0596 | –
